Results from publication PMC7819943, “Rice protein-binding microarrays: a tool to detect cis-acting elements near promoter regions in rice”.
The list shows a part of the results.

The sequences below were run against T1, OsWOX13 (Oryza sativa, UniProt Q5QMM3 1-267) (assay: protein-binding microarray (RPBM); PBS, 2% BSA, 51.3 ng/ul salmon testes DNA, 50 uM zinc acetate, 200 nM TF, 25 C, 1 h; high values mean tight binding). Conditions: protein: recombinant; tags: N-terminal polyhistidine and DsRed monomer fusion (pET32a); label: CyDye5-dUTP incorporated in the synthesized complementary strand; 3' TTTTT single-stranded linker to array surface; dsDNA, one strand shown.
T1 sequence: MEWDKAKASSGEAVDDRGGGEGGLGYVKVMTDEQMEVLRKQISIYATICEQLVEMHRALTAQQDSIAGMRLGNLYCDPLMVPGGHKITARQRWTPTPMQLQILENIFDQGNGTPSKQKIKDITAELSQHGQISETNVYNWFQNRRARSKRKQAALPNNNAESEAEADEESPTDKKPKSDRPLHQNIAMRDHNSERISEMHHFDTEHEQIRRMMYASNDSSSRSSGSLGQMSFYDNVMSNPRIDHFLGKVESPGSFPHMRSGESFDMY
Method in brief: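 The binding signal for each feature is its fluorescence intensity in arbitrary units. An Axon 4000B scanner was used to read a custom Agilent array that had been made double-stranded with Cy5-dUTP primer extension, blocked with 2% BSA, incubated at 25 °C for 1 h with 200 nM protein in PBS, 2% BSA, salmon testes DNA and 50 µM zinc acetate, and washed. The protein was an N-terminal polyhistidine–DsRed transcription factor fusion from E. coli BL21-CodonPlus, purified on Ni–NTA.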
With “ACTTGATAAACTGTGCATAGACAGGACAATACTTATCTCCCGGAGTCACCTAGTGCAG” the binding signal was 14900 fluorescence intensity (a.u.). In the case of “ACTCATCATCAGTTTCTTTTGATTTGAATACTCATATTCACGGAGTCACCTAGTGCAG”, the binding signal is reported as 6810 fluorescence intensity (a.u.). For “AGGATTGGACTGGCATTAGCTATGTCACTGGTAGATGGGACGGAGTCACCTAGTGCAG”, the binding signal was 3470 fluorescence intensity (a.u.). “CTACACAAATTATAATTTGCTAAGGGAGTATGCTTGGTAACGGAGTCACCTAGTGCAG” was tested, and the binding signal was 35600 fluorescence intensity (a.u.). “TGATAGTAATTAATAAACTTGTAAGGTGCACCCTCTGAAACGGAGTCACCTAGTGCAG” was tested, and the binding signal was 3960 fluorescence intensity (a.u.). In the case of “GTAAATCTGAATAATTACAGGAATACCGAATACTCCTATGCGGAGTCACCTAGTGCAG”, the binding signal is reported as 9600 fluorescence intensity (a.u.). “TAGCCATAAATTTATCACAAAATTACATGTTTAATACCAACGGAGTCACCTAGTGCAG” was tested, and the binding signal was 6940 fluorescence intensity (a.u.). In the case of “TGATGTTAATGAATCTAGATGGATATATATGTTTAGATTCCGGAGTCACCTAGTGCAG”, the binding signal is reported as 3300 fluorescence intensity (a.u.). In the case of “TATATAATTATTTTCTTTCTACTGACTGGCTGTACATGCCCGGAGTCACCTAGTGCAG”, the binding signal is reported as 29000 fluorescence intensity (a.u.). “CTGCTATGATTAATAGGATACACGGTATATTATTTCTGCACGGAGTCACCTAGTGCAG” was tested, and the binding signal was 13000 fluorescence intensity (a.u.). For “ATAGGATTGTTGTTTTGTTTTGATAGGATAAGATGGGCTACGGAGTCACCTAGTGCAG”, the binding signal was 4000 fluorescence intensity (a.u.). With “ATGTATAATTTATAATTCACTAAATTATTCTCATTCCTCTCGGAGTCACCTAGTGCAG” the binding signal was 28400 fluorescence intensity (a.u.). In the case of “TGACAACATTGATTATAACATGTGATATATTACTTCAGAACGGAGTCACCTAGTGCAG”, the binding signal is reported as 14100 fluorescence intensity (a.u.). In the case of “ACTTCTAATCAGTACTCTGCTTCCCCAATCCCAACCTGCGCGGAGTCACCTAGTGCAG”, the binding signal is reported as 3380 fluorescence intensity (a.u.). For “TCTGCAAACTAATCTATTGATTGAGTGGAGCGCATATTTTCGGAGTCACCTAGTGCAG”, the binding signal was 25100 fluorescence intensity (a.u.). With “TGAGTTATGATTAGACAAGATTCTGAAACTAAACTTGTTTCGGAGTCACCTAGTGCAG” the binding signal was 12900 fluorescence intensity (a.u.). For “CGGGCGCCATGCCGTCAATCACACGCCATACAGATCAAACCGGAGTCACCTAGTGCAG”, the binding signal was 4590 fluorescence intensity (a.u.). In the case of “AATATGATTTCCTCTGCGTGGAAAGAGATCAATTTAGCGACGGAGTCACCTAGTGCAG”, the binding signal is reported as 6400 fluorescence intensity (a.u.). In the case of “CTGTCCATTTAATTATTTGTTCAATCCATTGGAGCAGTAGCGGAGTCACCTAGTGCAG”, the binding signal is reported as 14000 fluorescence intensity (a.u.). In the case of “ACAAATTGAATTCAATGTGGTGCAATGTACTTTGCATGCGCGGAGTCACCTAGTGCAG”, the binding signal is reported as 33500 fluorescence intensity (a.u.). In the case of “GGCTTACAATGATTTGGCCGAACAATCTACGTCTCGTCTCCGGAGTCACCTAGTGCAG”, the binding signal is reported as 5620 fluorescence intensity (a.u.). In the case of “ACTTGCATGCTTAATTGATTTAGTTGGTGACCTTATATCTCGGAGTCACCTAGTGCAG”, the binding signal is reported as 37800 fluorescence intensity (a.u.). For “CCTAGTCAATCCCCGGTATGAAGATTGTATCTCCCTTCGTCGGAGTCACCTAGTGCAG”, the binding signal was 7490 fluorescence intensity (a.u.). For “AATTAATTAGCTCTCCTGCACATGCATGGTCCCTCACTGACGGAGTCACCTAGTGCAG”, the binding signal was 23300 fluorescence intensity (a.u.). In the case of “CCAAAATTGCAATTAGCCCCTTGCCGCCCTCTCGCAATTTCGGAGTCACCTAGTGCAG”, the binding signal is reported as 34500 fluorescence intensity (a.u.). “GTTAGATGGGATTAGTGAACTTGAGCATCAGGGTCAGTGGCGGAGTCACCTAGTGCAG” was tested, and the binding signal was 4560 fluorescence intensity (a.u.). In the case of “CTTGAATTCTCATAATTGGTTCTAGGGCTAATTTTGGGTGCGGAGTCACCTAGTGCAG”, the binding signal is reported as 11700 fluorescence intensity (a.u.). With “CTAATAAACAAGTTGACAGTAACGTACACTATTATCATGCCGGAGTCACCTAGTGCAG” the binding signal was 9140 fluorescence intensity (a.u.). “TTTCTTTTCTATTCAATCATGTATCATGAATGTGTTGAACCGGAGTCACCTAGTGCAG” was tested, and the binding signal was 13700 fluorescence intensity (a.u.). “ATCCATCTTTCATCTTAATTTGTGAACAATATGATGGCACCGGAGTCACCTAGTGCAG” was tested, and the binding signal was 3890 fluorescence intensity (a.u.). “GGACGCTTAATTATGGTGTTCATCTGTTCGATATGGTCCACGGAGTCACCTAGTGCAG” was tested, and the binding signal was 13200 fluorescence intensity (a.u.). In the case of “TCCGACTTGACTGCTATAAACTGATGACTCGTCGAAAAGCCGGAGTCACCTAGTGCAG”, the binding signal is reported as 16100 fluorescence intensity (a.u.). With “TCATTTGCTAATTAATGAATCCAGCGAGATCGACTGACGACGGAGTCACCTAGTGCAG” the binding signal was 6560 fluorescence intensity (a.u.). “TTTCATTTCTATGATTGAATTATACACAGTGGCATTTACACGGAGTCACCTAGTGCAG” was tested, and the binding signal was 9980 fluorescence intensity (a.u.). With “TTGGTTCCTATGCTTAAACTGGCTGTAAATTTACAGCCCGCGGAGTCACCTAGTGCAG” the binding signal was 3410 fluorescence intensity (a.u.). With “CAATCTGTCATCTCTTTACCAGTCTCATTGACATGTGGGCCGGAGTCACCTAGTGCAG” the binding signal was 3250 fluorescence intensity (a.u.). In the case of “GATGAAATCAATCAACGAGATATATAAGCAGATAATACATCGGAGTCACCTAGTGCAG”, the binding signal is reported as 15200 fluorescence intensity (a.u.). In the case of “TTATGGTGGAAATCACGTGTCTGATTCTTGATTTTGTTAACGGAGTCACCTAGTGCAG”, the binding signal is reported as 18800 fluorescence intensity (a.u.). In the case of “AATTAAATTTAAAGTCCATAAATTATAGAATTGACTAAAACGGAGTCACCTAGTGCAG”, the binding signal is reported as 6900 fluorescence intensity (a.u.). For “TTTAATTAAATATTATATATAATTGTTTTAAAGGAAAATGCGGAGTCACCTAGTGCAG”, the binding signal was 45800 fluorescence intensity (a.u.). In the case of “GCGGGTGATTACAAGACGGACGGGAGAGCGATCACACGACCGGAGTCACCTAGTGCAG”, the binding signal is reported as 5010 fluorescence intensity (a.u.). In the case of “TTTAGACAAATGAGATTAATATGGGTTAATTTTGTGGGAACGGAGTCACCTAGTGCAG”, the binding signal is reported as 8720 fluorescence intensity (a.u.).
